We go through 25 compounds from PubChem BioAssay AID463173 (ICCB-Longwood Screening Facility, Harvard Medical School, 2010).

Screen size: about 52,000 compounds; about 1,700 (3.3%) were called active. Rule as the data show it: active = survival mostly below about 52% (no sharp cut-off); inactive = mostly above about 56%. The list shows a part of the results.

The experiment relates to Wild type. The experiment can be described thus: S. aureus survival, RN4220 and DeltatarO strains – OD600, teichoic acid synthesis inhibitors, primary screen (AID 463173). Conditions: S. aureus RN4220 wild type/DeltatarO growth, OD600, 18 h, stronger effect = lower value, screened at 18.75 µg/mL (by protocol).
Turning to `COC(=O)c1ccc(NC(=O)C(=O)NCCc2csc(-c3ccc(F)cc3)n2)cc1`, the survival is inactive: 127%.

On to `Cc1ccc(O)c(NC(=O)C2=CC(c3ccco3)=NS(=O)(=O)N2C)c1`, for which the survival was inactive: 81%.

`COc1ccc(N2CCN(Cc3nc4c(c(=O)[nH]c(=O)n4C)n3Cc3ccccc3C)CC2)cc1`: the survival was inactive: 120%.

For `Cc1csc2nc(COC(=O)CNC(=O)c3ccccc3)cc(=O)n12`, the survival is inactive: 85%.

For `C=CCSc1nnc(-c2ccccc2)n1-c1ccccc1`, the survival is inactive: 106%.

Consider `COc1ccc(NC(=O)C2CCCN(S(=O)(=O)c3ccc(F)cc3)C2)cc1` (stereo not given), for which the survival was inactive: 85%.

With `CC(=O)N1CCN(C(=O)C2(NC(=O)Nc3ccc(C)cc3)CCCCC2)CC1`, the survival was inactive: 108%.

As to `Cc1ccc(CN(C(=O)COc2ccccc2[N+](=O)[O-])c2ccccn2)o1`, the survival was inactive: 80%.

On to `O=c1oc2ccccc2cc1-c1cn2cc(Cc3cc(Cl)ccc3Cl)sc2n1`, for which the survival is inactive: 68%.

On to `CCc1nnc(NC(=O)CSc2nc3c([nH]c4ccccc43)c(=O)n2-c2ccc(Cl)cc2)s1`, for which the survival is inactive: 66%.

Turning to `FC(F)(F)c1cc(-c2ccccc2)nc2cc(-c3ccccc3)nn12`, the survival is inactive: 75%.

`CCN(CC)S(=O)(=O)c1ccc2c(c1)N(CC(=O)Nc1cccc(C#N)c1)C(=O)CO2`: the survival was inactive: 74%.

For the compound `CCOc1ccc(N2C(=O)CC3(CC(C(=O)OCc4ccccc4)=NN3)C2=O)cc1` (stereo not given), the survival is inactive: 105%.

With `Cc1ccc2onc(CC(=O)N3CCN(c4cccc(Cl)c4)CC3)c2c1`, the survival is inactive: 82%.

Take `Cc1cc(F)ccc1NC(=O)Cn1cc(S(=O)(=O)NC(C)C)c(S(=O)(=O)NC(C)C)c1`: the survival was inactive: 73%.

For `CCCCSc1nc2sc3c(c2c(=O)n1-c1ccccc1C)CC(C)(C)OC3`, the survival was inactive: 67%.

For `O=C(c1ccccc1)N1CCN(CCc2ccccn2)CC1`, the survival is inactive: 81%.

On to `COc1ccc(NC(=O)CNC(=O)Cn2c(C)cc3ccccc3c2=O)c(OC)c1`, for which the survival was inactive: 64%.

As for `CCOc1ccc(-n2cc(-c3ccccc3)c3c(Nc4cccc(F)c4)ncnc32)cc1`, the survival is inactive: 80%.

For `CCOc1ccc(C(=O)Nc2nnc(SCc3cc(=O)n4ccccc4n3)s2)cc1`, the survival is inactive: 69%.

Consider `Cc1ccc(NC(=O)c2cnc(N3CCCC3)nc2C)cc1F`, for which the survival is inactive: 72%.

Take `CCN(Cc1ccccc1)S(=O)(=O)c1cc(Br)cc2c1N(C(=O)C1CC1)CC2`: the survival is inactive: 64%.

Take `COC(=O)C1=C(C)Nc2ccccc2S1`: the survival is inactive: 108%.

Turning to `COc1cccc(C(=O)Nc2c(C(=O)Nc3ccc(F)cc3)oc3ccccc23)c1OC`, the survival was inactive: 74%.

In the case of `CC(CNC(=O)CCn1c(=O)c2cccn2c2ccc(F)cc21)c1ccccc1` (stereo not given), the survival is inactive: 62%.
